From article PMC10726135 come the findings set out here.

The other results are listed elsewhere or left out. At the low end of the ranking the order means little. The protein was read in a cell extract, so binding may be indirect.

For this assay, the target named is T1, HNF4alpha8 (COS-7 nuclear extract) (UniProt P41235-5).
T1 sequence: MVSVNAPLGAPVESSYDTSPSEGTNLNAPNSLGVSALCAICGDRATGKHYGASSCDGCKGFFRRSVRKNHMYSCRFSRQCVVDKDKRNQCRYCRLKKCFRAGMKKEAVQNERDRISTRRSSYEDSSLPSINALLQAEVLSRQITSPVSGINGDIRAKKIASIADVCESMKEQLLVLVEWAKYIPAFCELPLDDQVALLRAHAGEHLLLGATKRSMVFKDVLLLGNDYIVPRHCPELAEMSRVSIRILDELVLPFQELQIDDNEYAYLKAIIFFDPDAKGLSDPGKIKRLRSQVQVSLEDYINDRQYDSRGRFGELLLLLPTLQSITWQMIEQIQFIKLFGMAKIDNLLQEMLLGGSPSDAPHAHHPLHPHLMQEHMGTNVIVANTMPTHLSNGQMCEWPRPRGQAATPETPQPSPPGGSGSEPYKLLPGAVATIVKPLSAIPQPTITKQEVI
Nature of the assay: protein-binding microarray. Conditions: COS-7 nuclear extract on double-stranded Agilent 4x180k PBM; binding buffer, salt, pH and temperature not given; high values mean tight binding; double strand, one strand shown; sequences stand for … in …GCCTAGGGAGATTAGAGTATCGGTCGA
For the sequence GTACACAGGAATATCAACAGGAGCAAATAT, the binding signal (log2 normalized intensity) was -1.3. Then ATATTCAGACGCATGACCTCAACTCTCAGT, with 0.396. Then TCATTTTGATCTTTGTGTACAAAGCCATCA, with 1.49; and AGGTGTAACCTGCTCTCTCATGCCCTTTGC, with 4.81; and GTTCAGAGGGCATGTTGAGTGGAATATGAG, with 0.989.

With GCCTTGCTGAGGAATTTGGACTTCAGCCCA, the binding signal (log2 normalized intensity) was 7.03. Turning to GCATCAACTCTATCATACTCAGCTAATCTA, the binding signal (log2 normalized intensity) is -1.29. In the case of ACAGCTGACAAGCAGAACCCAGGGTCACAA, the binding signal (log2 normalized intensity) worked out at 1.25. Take CTAGAAAGAATGAGAAGGGCTAATATTTGC: the binding signal (log2 normalized intensity) is -1.17. Then GAACTCTTCATGGACTCCTCTTATCTTCAG, with 0.888; and ACTGCCATTGATAATTCAGTTTCATTGCAC, with -0.131. For TCCCTCCCCCATTAGAGGCACACTCTATTA, the binding signal (log2 normalized intensity) was found to be 3.48. Regarding CGAGAGAGACCTGTTCTGTTCCCTGGACTC, the binding signal (log2 normalized intensity) turned out to be 3.25. The value for TTTGTTCACTTGTTTATCTGCTGCCCTTCC was 3.05; that for GCTTGACCCATTATGGCCACTGTGTGTGTG was 2.11; that for TCAGGTTCCCCAGTGAGGATGTGTGCTCGA was 1.14. Then AGACAGAAAACAAACATTAGCTGCAGATTC, with -1.33; and TAGGGCAGGGGGGAGATGAAATCTGGAGCT, with -1.42; and TGACACACACCTCCAGCCACCCTGAAGGCT, with -1.32. On to GTGGGATCCAACCAGAGGGAAGAGATCATG, for which the binding signal (log2 normalized intensity) is -1.13. Then CAAACATTTATTTTGTGTGCTAGATACTGG, with 0.924. With CCCCTCTGACCTCTCCTCCTACCTTCTCCC, the binding signal (log2 normalized intensity) stood at 2.67.

TCTTTGCCCTCTTGGTATCAGCTTTGAGAC: the binding signal (log2 normalized intensity) stood at 1.91. Regarding CCTTTCCCCGCCCCGCGTCCGTGCACCCTT, the binding signal (log2 normalized intensity) is 4.51. Consider GTCAGGAACAAAGGTCACAGCACTGTTTAT, for which the binding signal (log2 normalized intensity) came out at 4.74. The value for TAATTAACTCCCCCTGCCCCCAGGTAGAGA was 5.82; that for CCCCCAGCCTCTCACAGTAGCCCAGGTCCT was 2.25; that for AGGAGAAGGGCCCATGGGCTTCAGGGTAAA was -1.43. Then AAAAAACCCTAGAGATGTACACAGTTCAAA, with -0.843; and AATTGTGAAACTCAGAATCAGGGGATTCTG, with -1.38. Then CTTCACCTCCCCTAGACTTACTATTATGCC, with 1.86; and CCTAGCCCCACCAAACTGACAGGTTAGACT, with 2.33; and CAAGGTTCCCAGCTAAATAAATAACTCTAA, with -1.34.

CTCCAAACATCTTTGGTATGGACTGATATT: the binding signal (log2 normalized intensity) is 1.85. Then AGGAGATATGCACTTGCCCTTTGGTAATCC, with 3.81; and GACTCTGTCCTGGGCACTGTCCTAGGTGCT, with -1.17; and CTCCCCCACGACAGAATTGACTCTTCGTTT, with 2.63.

On to TGCCACAGGTATTTCTGTTGTTGATTTAAC, for which the binding signal (log2 normalized intensity) stood at 1.39. Then TATTCTTTAACCAGAGTCTACAGGTCAGAC, with 2.21; and TATCTCAACTGATTTACCTCTGACCACTCT, with 1.15; and TCTTGTAGGTTTTTTTTTTTTTTAACGGTC, with 3.09. The value for CTCCAGGAGCAATCATCGCACCTAAGGGCA was -1.43. With GTCCCAGGGCAAAGGTCACCAGCTAAGCTG, the binding signal (log2 normalized intensity) turned out to be 6.21. Turning to ACCTCTGGTCATTCAATGTTTGGGAGCCTT, the binding signal (log2 normalized intensity) is 1.2. On to TGTCGGTATAAGTTCTACATTCCCAAGGTT, for which the binding signal (log2 normalized intensity) is 0.743. The value for CTTCCTTTATTCACTTCTCAAAGGACAGAT was 1.65. The value for AAGGCATGGGACCTTTGCCCTTCTTGTTAA was 5.47. Then ACACTTTCTGACCTTTAAGCACCCAGAGCC, with 2.86; and TAAAGGTCAAAACCACCTATTCTGAAGATT, with 0.57. On to GTTACGAGTGGGAGTTAGGGAAAAGATAAG, for which the binding signal (log2 normalized intensity) is -1.33. Take GAGGAGAGTACTGTCTCTTATCAGCCATCT: the binding signal (log2 normalized intensity) is -1.22. As to TTCCAGGCTTGTACCTTGACCTTCTCTGTT, the binding signal (log2 normalized intensity) was 6.19. As to AGATGTGAACACTGAGGCTCAATGAGGTCA, the binding signal (log2 normalized intensity) is 2.2. For the sequence CCCGGGCACAGGGTTGAGTGGTGACTGAAG, the binding signal (log2 normalized intensity) was -1.22. With CAAGAGAGGTCACAACAGAAAGCAAGAGCA, the binding signal (log2 normalized intensity) is -1.27. Regarding ACGCCCTGCACCCTACGTAAATGCACGGAA, the binding signal (log2 normalized intensity) was -1.23. The value for AAATTATTACTCCCACCGTGTGTGCACTTT was 3.9; that for ATTCCTATCGCCCTTCTGTCAAGTCCAAAG was 1.08; that for TGGGAACCGACCTTTGGTTCCTGAACTCAA was 5.39. In the case of TTGCTCAACCCAAAGCATGTCCAGAATCCT, the binding signal (log2 normalized intensity) turned out to be 0.712. The value for GGCCCTGCAGACTTTGCCTCAGTAAATGCA was -0.324. The value for CACACACACACAGCATTCCATTCATTTTAG was -0.802; that for TTCCCTCATGATTTAGTAAGTTCAAGAAGA was 0.776. As for CAGGATGGTAGTTGCTGAAGGGCAGGGTTG, the binding signal (log2 normalized intensity) stood at 0.636. Turning to GTGGGAGAGGGGGACTGCAAGTACGATTGG, the binding signal (log2 normalized intensity) is -0.682. In the case of GTAATCATTTGGGACAAAGTTCATCTGGGC, the binding signal (log2 normalized intensity) turned out to be 4. TGCGTGTTATCTATGGAACATGGACTTTGA: the binding signal (log2 normalized intensity) was determined as 9.28. On to GGCAGCAGGGAAGAGCCGGCCGGCGGGGTC, for which the binding signal (log2 normalized intensity) amounted to 2.73. The value for TTATCAAGCGTGCACCCCAGGTACGGAGGA was -0.9. The value for ACAGTGGGGAGGGCAGGGTCAGAACCTGCC was -1.16; that for ATAAGGGGCAGCAAACCTACCTGAACTTTG was 3.58; that for TGCATTCCCCCACCTACTGTCTCCTAATCA was 2.09.
